In patent US20170306033A1 (Amgen, published 2017):

T1: human PAC1 receptor (human, UniProt P41586 21-468)
T1 sequence: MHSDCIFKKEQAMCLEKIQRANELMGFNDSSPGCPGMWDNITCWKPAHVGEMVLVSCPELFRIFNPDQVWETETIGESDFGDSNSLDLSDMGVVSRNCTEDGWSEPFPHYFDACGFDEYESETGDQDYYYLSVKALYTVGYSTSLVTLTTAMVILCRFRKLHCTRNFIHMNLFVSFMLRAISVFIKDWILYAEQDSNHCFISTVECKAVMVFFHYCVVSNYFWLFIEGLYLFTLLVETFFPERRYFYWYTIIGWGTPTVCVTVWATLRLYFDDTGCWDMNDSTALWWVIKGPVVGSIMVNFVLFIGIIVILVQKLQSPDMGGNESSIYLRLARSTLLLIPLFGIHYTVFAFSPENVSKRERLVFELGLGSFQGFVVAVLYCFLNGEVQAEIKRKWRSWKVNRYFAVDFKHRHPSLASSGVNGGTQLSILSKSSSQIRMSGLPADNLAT


Legend:
human CGRP receptor = human CGRP receptor (human, UniProt Q16602 23-461; O60894 27-148); assay: cell-based or functional assay
human PAC1 receptor = target: T1, human PAC1 receptor; assay: cell-based or functional assay

human CGRP receptor, sequence (Q16602 23-461 limits assumed, chain 1 of 2): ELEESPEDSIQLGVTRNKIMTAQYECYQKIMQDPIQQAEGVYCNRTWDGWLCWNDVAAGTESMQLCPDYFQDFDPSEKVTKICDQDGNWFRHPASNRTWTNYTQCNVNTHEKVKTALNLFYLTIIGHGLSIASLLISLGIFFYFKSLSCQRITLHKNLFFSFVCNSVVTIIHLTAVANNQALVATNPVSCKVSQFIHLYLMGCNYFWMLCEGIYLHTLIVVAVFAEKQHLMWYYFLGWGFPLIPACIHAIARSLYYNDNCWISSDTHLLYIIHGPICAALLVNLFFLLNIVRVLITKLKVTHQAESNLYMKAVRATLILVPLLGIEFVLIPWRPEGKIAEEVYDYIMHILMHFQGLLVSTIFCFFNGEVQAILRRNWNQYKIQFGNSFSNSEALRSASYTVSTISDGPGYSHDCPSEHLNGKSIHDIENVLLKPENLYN
human CGRP receptor, sequence (O60894 27-148 limits assumed, chain 2 of 2, further chain): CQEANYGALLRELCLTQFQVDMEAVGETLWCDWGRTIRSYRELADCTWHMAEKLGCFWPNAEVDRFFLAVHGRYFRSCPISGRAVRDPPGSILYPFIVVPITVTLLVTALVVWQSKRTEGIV

% inhibition of human CGRPR (human CGRP receptor) [%]	% inhibition of human PAC1 (human PAC1 receptor) [%]	Binder
79	38	iPS:327268 (bispecific antibody, human IgG1, kappa, lambda) light 1: DIVMTQSPDSLAVSLGERATIHCKSSQSVLYSSNNKNFLTWYQQKPGQPPKLLIYRASTRESGVPDRFSGSGSGTDFTLTISSLQAEDVAVYFCQQYYSAPFTFGPGTRVDIKRTVAAPSVFIFPPSDEQLKSGTASVVCLLNNFYPREAKVQWKVDNALQSGNSQESVTEQDSKDSTYSLESTLTLSKADYEKHKVYACEVTHQGLSSPVTKSFNRGEC heavy 1: QVQLQESGPGLVKPSQTLSLTCTVSGGSISSGGYYWSWIRQHPGKGLEWIGYIYYSGNTYYNPSLKSRVTISGDTSKNQFSLKLRSVTAADTAVYYCTRGGAARGMDVWGQGTTVTVSSASTKGPSVFPLAPSSKSTSGGTAALGCLVKDYFPEPVTVSWNSGALTSGVHTFPAVLQSSGLYSLKSVVTVPSSSLGTQTYICNVNHKPSNTKVDKKV[left out - human IgG1 Fc with changes] light 2: QSVLTQSPSASGTPGQRVTISCSGSSSNIGSNYVYWYQQLPGAAPKLLILRNNQRPSGVPDRFSGSKSGTSASLTISGLRSEDEADYYCAAWDDSLSGWVFGGGTKLTVLGQPKANPTVTLFPPSSEELQANKATLVCLISDFYPGAVTVAWKADGSPVKAGVETTKPSKQSNNKYAAKSYLSLTPEQWKSHRSYSCQVTHEGSTVEKTVAPTECS heavy 2: [left out - about 100 residues]DRTGYSISWSSYYYYYGMDVWGQGTTVTVSSASTKGPSVFPLAPSSKSTSGGTAALGCLVKDYFPEPVTVSWNSGALTSGVHTFPAVLQSSGLYSLESVVTVPSSSLGTQTYICNVNHKPSNTKVDKKVEPKSCDKTHTCPPCPAPELLGGPSVFLFPPKPKDTLMISRTPEVTCVVVDVSHEDPEVKFNWYVDGVEVHNAKTKPCEEQYGSTYRCVSVLTVLHQDWLNGKEYKCKVSNKALPAPIEKTISKAKGQPREPQVYTLPPSRKEMTKNQVSLTCLVKGFYPSDIAVEWESNGQPENNYKTTPPVLKSDGSFFLYSKLTVDKSRWQQGNVFSCSVMHEALHNHYTQKSLSLSPGK
80	87	iPS:327276 (bispecific antibody, human IgG1, kappa, lambda, N297G) light 1: DIQMTQSPSSLSASVGDRITITCRASQSISRYLNWYQQKPGKAPKLLIYAASSLQSGIPSRFSGSGSGTDFTLTINSLQPEDFATYFCQQSYSPPFTFGPGTKVDIKRTVAAPSVFIFPPSDEQLKSGTASVVCLLNNFYPREAKVQWKVDNALQSGNSQESVTEQDSKDSTYSLESTLTLSKADYEKHKVYACEVTHQGLSSPVTKSFNRGEC heavy 1: QVQLQQSGPGLVKPSQTLSLTCAISGDSVSSNSATWNWIRQSPSRGLEWLGRTYYRSKWSNHYAVSVKSRITINPDTSKSQFSLQLNSVTPEDTAVYYCARGTWKQLWFLDHWGQGTLVTVSSASTKGPSVFPLAPSSKSTSGGTAALGCLVKDYFPEPVTVSWNSGALTSGVHTFPAVLQSSGLYSLKSVVTVPSSSLGTQTYICNVNHKPSNTKVDKKV[left out - human IgG1 Fc with R292C N297G V302C K370D K392D K409D (EU numbers)] light 2: QSVLTQSPSASGTPGQRVTISCSGSSSNIGSNYVYWYQQLPGAAPKLLILRNNQRPSGVPDRFSGSKSGTSASLTISGLRSEDEADYYCAAWDDSLSGWVFGGGTKLTVLGQPKANPTVTLFPPSSEELQANKATLVCLISDFYPGAVTVAWKADGSPVKAGVETTKPSKQSNNKYAAKSYLSLTPEQWKSHRSYSCQVTHEGSTVEKTVAPTECS heavy 2: [left out - about 100 residues]DRTGYSISWSSYYYYYGMDVWGQGTTVTVSSASTKGPSVFPLAPSSKSTSGGTAALGCLVKDYFPEPVTVSWNSGALTSGVHTFPAVLQSSGLYSLESVVTVPSSSLGTQTYICNVNHKPSNTKVDKKVEPKSCDKTHTCPPCPAPELLGGPSVFLFPPKPKDTLMISRTPEVTCVVVDVSHEDPEVKFNWYVDGVEVHNAKTKPCEEQYGSTYRCVSVLTVLHQDWLNGKEYKCKVSNKALPAPIEKTISKAKGQPREPQVYTLPPSRKKMTKNQVSLTCLVKGFYPSDIAVEWESNGQPENNYKTTPPVLKSDGSFFLYSKLTVDKSRWQQGNVFSCSVMHEALHNHYTQKSLSLSPGK
